Screen size: about 310,000 compounds; about 2,200 (0.71%) showed an effect of 50% or more. The effect is printed as a negative number. This is one part of the list.
What follows are compounds tested against human ether-à-go-go-related gene (hERG) potassium channel (human, UniProt Q12809) (assay: primary screen, population patch clamp on CHO cells stably expressing hERG).
human ether-à-go-go-related gene (hERG) potassium channel, sequence (Q12809 whole entry, looked up): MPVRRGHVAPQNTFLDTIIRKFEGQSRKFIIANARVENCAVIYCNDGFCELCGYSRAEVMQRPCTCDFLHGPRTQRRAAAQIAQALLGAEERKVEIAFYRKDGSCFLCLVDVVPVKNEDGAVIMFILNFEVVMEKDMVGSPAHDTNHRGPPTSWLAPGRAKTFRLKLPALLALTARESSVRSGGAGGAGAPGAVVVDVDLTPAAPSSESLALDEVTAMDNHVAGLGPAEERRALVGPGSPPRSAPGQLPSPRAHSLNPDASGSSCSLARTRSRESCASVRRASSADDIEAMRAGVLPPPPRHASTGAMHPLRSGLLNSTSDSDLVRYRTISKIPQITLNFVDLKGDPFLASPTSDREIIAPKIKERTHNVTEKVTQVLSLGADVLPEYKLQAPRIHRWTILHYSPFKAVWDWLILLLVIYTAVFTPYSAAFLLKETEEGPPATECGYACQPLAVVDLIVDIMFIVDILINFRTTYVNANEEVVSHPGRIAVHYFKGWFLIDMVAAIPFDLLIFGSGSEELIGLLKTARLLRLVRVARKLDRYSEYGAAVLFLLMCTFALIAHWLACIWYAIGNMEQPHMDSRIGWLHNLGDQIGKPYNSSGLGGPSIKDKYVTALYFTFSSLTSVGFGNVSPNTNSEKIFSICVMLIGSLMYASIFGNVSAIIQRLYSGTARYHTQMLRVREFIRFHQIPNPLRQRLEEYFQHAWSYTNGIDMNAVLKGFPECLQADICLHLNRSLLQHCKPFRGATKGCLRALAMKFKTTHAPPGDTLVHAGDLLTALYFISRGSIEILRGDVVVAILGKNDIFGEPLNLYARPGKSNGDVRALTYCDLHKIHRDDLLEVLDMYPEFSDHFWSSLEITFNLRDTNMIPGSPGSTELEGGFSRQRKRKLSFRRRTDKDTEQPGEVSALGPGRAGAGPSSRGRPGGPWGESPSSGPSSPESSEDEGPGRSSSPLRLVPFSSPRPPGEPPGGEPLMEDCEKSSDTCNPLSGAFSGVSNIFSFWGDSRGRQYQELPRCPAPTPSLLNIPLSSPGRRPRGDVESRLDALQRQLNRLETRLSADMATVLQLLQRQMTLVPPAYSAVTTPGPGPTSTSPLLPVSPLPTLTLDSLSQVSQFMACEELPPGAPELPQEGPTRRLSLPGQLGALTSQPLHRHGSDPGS

Compound	hERG current change (%, negative = inhibition) at 1uM
COc1ccc(-c2cc(=O)c3cc(OC)ccc3[nH]2)cc1	3.34%
Cc1ccc(S(=O)(=O)N(C)c2ccc(C(=O)NCc3cccnc3)cc2)cc1	4.98%
CSCCC(N=Cc1c(O)n(-c2ccc(Cl)cc2)c(=O)[nH]c1=O)C(=O)OC(C)(C)C (stereo not drawn)	-0.641%
COC(=O)c1c(C(=O)OC)c2ccncn2c1Cl	12.8%
Cc1ccc2oc(-c3cccc(NC(=O)c4ccc(Br)o4)c3C)nc2c1	3.74%
CN(C)c1ccc(/C=N/N=C2/NC(=O)/C(=C/c3ccc([N+](=O)[O-])cc3)S2)cc1	8.91%
N#Cc1cccc(NC(=O)CNC(=O)Cc2ccccc2)c1	11.8%
CCN(CC(=O)Nc1cccc(OC)c1)CC(=O)Nc1ccccc1C	7.5%
CSCC[C@H](NC(=O)OC(C)(C)C)C(=O)N1CCC(C(=O)N[C@@H](C)C(=O)O)CC1	5.24%
O=C1CCCN1c1ccc(S(=O)(=O)Oc2ccc(Cl)cc2)cc1[N+](=O)[O-]	6.06%
O=C(O)CCn1cc(-c2ccc(Cl)cc2)nc1-c1ccncc1	12.4%
C=CCOC(=O)N1CCN(c2cccc(C(F)(F)F)c2)CC1	18.2%
Cc1oc(-c2ccccc2Cl)nc1CN1CCCCC1CO (stereo not drawn)	8.18%
O=C(NCc1nnnn1-c1ccc(F)c(F)c1)c1cc2ccccc2o1	-4.13%
CC(=O)c1ccc(NC(=O)CN2C(=O)/C(=C/C=C/c3ccccc3)SC2=S)cc1	8.12%
CC(Oc1ccc(Cl)cc1)C(=O)Nc1ccc(S(=O)(=O)Nc2nccs2)cc1 (stereo not drawn)	0.577%
CCN(CC)C(=O)C(C)N(C#N)c1nc(Cl)nc(N(C)C)n1 (stereo not drawn)	13.7%
Clc1cccc(-c2cc3nc4c(c(NCc5ccco5)n3n2)CCCC4)c1	-0.896%
CN(C)c1cccc(Oc2nc3c(c(=O)n(C)c(=O)n3C)n2C)c1	5.16%
CN1CCN(C(c2ccccn2)c2cc(Cl)c3cccnc3c2O)CC1 (stereo not drawn)	9.92%
Cc1nonc1NC(=O)CSc1nnc(-c2ccoc2C)n1-c1cccc(Cl)c1	-58.8%
CCn1c(SCC(=O)Nc2ccc(F)cc2)nnc1-c1cnccn1	-6.73%

Compound	hERG current change (%, negative = inhibition) at 1uM
CC(C)[C@H](Nc1ncnc2c1oc1ccccc12)C(=O)O	11.5%
O=C(NCc1ccco1)c1nc2nc(-c3cccs3)cc(C(F)(F)F)n2n1	3.1%
Cc1cccc(-n2ncc3c(N4CCOCC4)ncnc32)c1	-22.2%
CCn1c(SCC(=O)NNC(=O)c2ccccc2)nnc1-c1ccncc1	-3.88%
CCOC(=O)CN(Cc1sccc1C)C(=O)Nc1cccc(OC)c1	12.8%
COc1cccc(CNc2ccccc2O)c1OCc1ccccc1F	10.6%
CCc1n[nH]c(=S)n1/N=C/c1cc(Br)c(O)c(OC)c1	11%
O=C1C[C@H](NC(=O)OCc2ccccc2)CO1	6.98%
Cc1cc2c(=O)n(NC(N)=O)c(C)nc2s1	-0.691%
COc1cc(C2CC(=O)N(CC(=O)NCc3ccco3)c3ccccc3S2)cc(OC)c1OC (stereo not drawn)	-4.08%
O=C(O)C1(P(=O)(c2ccc(Cl)cc2)c2ccc(Cl)cc2)CCCC1	6.25%
O=C(COC(=O)c1ccc(-n2cnnn2)cc1)Nc1cc(Cl)ccc1F	5.9%
Cc1[nH]c2ccc(Cl)cc2c(=O)c1CN1CCCC1	5.01%
COc1ccc(C(=O)N2CC3(CC(c4cccc([N+](=O)[O-])c4)=NO3)C[C@H]2C(=O)NCC(N)=O)cc1 (stereo partly drawn)	11.3%
Cc1ccc(S(=O)(=O)c2ccc(Cl)cc2)cc1S(=O)(=O)N(C)CC(=O)O	14.3%
COc1ccc(OCC(=O)Nc2cc(S(=O)(=O)N3CCCCC3)ccc2OC)cc1	-2.4%
O=C(O)c1cc(-c2cccnc2)nn1-c1ccccn1	-5.27%
O=C(NNC(=S)NC1CCCCC1)c1ccccc1Br	14.1%
Cc1ccc(CNC(=O)CN(C(=O)C2(C)CC(=O)N=C3C=CC=CN32)c2cc(C)ccc2C)cc1 (stereo not drawn)	16.7%
CCN(CC)S(=O)(=O)c1cccc(C(=O)N[C@H](C(=O)OCC(=O)Nc2ccccc2)C(C)C)c1	7.69%
Cc1cc(NC(=O)COC(=O)c2ccc(OC(F)(F)F)cc2)no1	4.75%
COc1cc(CN2CCN(S(=O)(=O)c3ccccc3)CC2)cc(OC)c1OC.O=C(O)C(=O)O	0.548%

Compound	hERG current change (%, negative = inhibition) at 1uM
O=C(Nc1nccs1)c1ccc(S(=O)(=O)c2ccccc2)cc1	8.72%
C#CC[N+](C)(C)C(C#Cc1ccccc1)CC=C.[Br-] (stereo not drawn)	7.68%
CCC(C)(C)C1CCc2[nH]nc(C(=O)N/N=C(\C)c3ccco3)c2C1 (stereo not drawn)	-8.83%
Cc1ccc(CC2C(=O)N(c3cc(Cl)ccn3)C(=O)C2C)cc1 (stereo not drawn)	6.69%
Cc1ccc2ncccc2c1NC(=S)NC(=O)c1ccccc1	8.38%
COc1ccc(CNC(=O)COC(=O)CCN2C(=O)C3CC=CCC3C2=O)cc1OC (stereo not drawn)	10.5%
O=C(c1ccccn1)N(CC1CCCO1)C1(C(=O)NC2CCCCC2)CCCCC1 (stereo not drawn)	5.42%
CS(=O)(=O)N(CCc1ccccc1)CC(=O)Nc1ccc2c(c1)OCO2	2.04%
CC(C)CN1C(=O)NC(NS(=O)(=O)c2ccc(N)cc2)(C(F)(F)F)C1=O (stereo not drawn)	9.58%
COc1cccc(C(=O)N2C(C(=O)O)CSC2c2ccccc2Cl)c1 (stereo not drawn)	8.61%
Cc1ccc(P(=S)(c2ccc(C)o2)N2CCOCC2)o1	3.25%
COc1cc(NC(=O)c2ccco2)c(OC)cc1NC(=O)CCC(=O)Nc1cccc(C)c1C	-3.26%
COC(=O)COc1ccc(S(=O)(=O)NCc2ccc3c(c2)OCO3)cc1	12%
O=C(CN1C2CCCC1CC(NC(=O)C1CCCCC1)C2)NCc1ccc(F)cc1 (stereo not drawn)	-14.9%
CCn1nnc(NC(=O)C(c2ccccc2)c2ccccc2)n1	9.69%
O=C(NCCN1CCCC1)c1ccc(Cn2c(=S)[nH]c3ccc(Br)cc3c2=O)cc1	1.01%
COc1ccc(-c2nnc(-c3cccnc3)o2)cc1OC	-2.29%
COCCCNC(=O)CN(c1cccc(Cl)c1)S(C)(=O)=O	6.32%
CC(C)N1CCN(Cc2ccc(-c3ccccc3Cl)o2)CC1CCO (stereo not drawn)	-2.59%
CCCCNC(=O)C(=O)N/N=C/c1ccc(C(=O)OC)cc1	10.3%
O=[N+]([O-])c1ccc(C2=Nc3cc(Cl)ccc3OC2)cc1	31%
CS(=O)(=O)N(CC(=O)Nc1c(F)cccc1F)c1cccc([N+](=O)[O-])c1	6.33%

Compound	hERG current change (%, negative = inhibition) at 1uM
CCc1c(O)nc(SCC(=O)Nc2ccccc2)n(-c2ccccc2)c1=O	12.1%
CCC(CCCO)CCC[C@H](C)CCC1OCCO1 (stereo partly drawn)	-0.575%
CCOc1ccc(NC(=S)/C(=C(\[O-])c2ccc(C)c([N+](=O)[O-])c2)[n+]2ccccc2)cc1	1.23%
O=C(CNS(=O)(=O)c1ccc2ccccc2c1)OCc1nnc(-c2ccccc2)o1	13.5%
COCCNC(=O)CN1CCOc2ccccc21	8.36%
COc1ccc(S(=O)(=O)NCC2CCCN(C(=O)c3cccnc3C)C2)cc1 (stereo not drawn)	14%
O=C(CN1CCN(Cc2ccccc2)CC1)Nc1ccc(F)c(F)c1.O=C(O)C(=O)O	-21.9%
O=S(=O)(/N=C(/c1ccccc1Cl)N1CCOCC1)c1ccccc1	10.9%
c1ccc(Cn2ncc3c(Nc4ccccc4)ncnc32)cc1	10.3%
CC(NC(=O)c1ccc(Br)s1)C1CCCO1 (stereo not drawn)	9.5%
O=C(CSc1ccc(-c2ccco2)nn1)N1CCCC1	7.89%
COC(=O)[C@@H]1CCCN1C(=O)c1ccc(OC2CCN(Cc3ccccn3)CC2)cc1	27.3%
NNC(=O)c1cccc(COc2ccccc2Br)c1	8.34%
CC(=O)c1sc(NC(=O)CCCOc2ccc(Cl)cc2)nc1C	12.8%
CCOc1cccc(/C=N/NC(=S)NCCN2CCOCC2)c1O	11.2%
C=C(C)[C@H]1CC=C(C)/C(=N/NC(=O)CNc2ccccc2OC)C1	20.6%
Cc1cc(C)nc(Nc2n[nH]c(COc3ccccc3)n2)n1	9.69%
Cc1ccccc1CNc1ccc(C(CC(N)=O)NC(=O)c2ccc(Br)cc2)cc1[N+](=O)[O-] (stereo not drawn)	10.8%
CCOc1ccccc1-c1nc(C(N)=O)c2[nH]c(=O)n(-c3cccc(C)c3)c2n1	7.19%
CC(=O)C1=C(C)OC(N)=C(C#N)C1c1cccc([N+](=O)[O-])c1 (stereo not drawn)	12%
O=C(c1ccco1)c1nnn(Cc2ccccc2)c1-c1ccccc1	2.97%

— paper PMC4336329 (PLoS ONE, 2015)
